Paper PMC4592949
No constants are given. Whether binding was seen depends on the method and setting. For some assays here: Binding seen in cells or lysates may run through a third protein. Some entries that bind do so weakly or less than the wild type.

Sequences of proteins named here, by UniProt entry; tags and fusion partners are left off. A change or cut given only in a name is not applied to a line headed by its entry. A line that says so, or that is headed by a name, gives the form on record, which may keep a tag or linker. Residues count along the entry.
UniProt Q13772: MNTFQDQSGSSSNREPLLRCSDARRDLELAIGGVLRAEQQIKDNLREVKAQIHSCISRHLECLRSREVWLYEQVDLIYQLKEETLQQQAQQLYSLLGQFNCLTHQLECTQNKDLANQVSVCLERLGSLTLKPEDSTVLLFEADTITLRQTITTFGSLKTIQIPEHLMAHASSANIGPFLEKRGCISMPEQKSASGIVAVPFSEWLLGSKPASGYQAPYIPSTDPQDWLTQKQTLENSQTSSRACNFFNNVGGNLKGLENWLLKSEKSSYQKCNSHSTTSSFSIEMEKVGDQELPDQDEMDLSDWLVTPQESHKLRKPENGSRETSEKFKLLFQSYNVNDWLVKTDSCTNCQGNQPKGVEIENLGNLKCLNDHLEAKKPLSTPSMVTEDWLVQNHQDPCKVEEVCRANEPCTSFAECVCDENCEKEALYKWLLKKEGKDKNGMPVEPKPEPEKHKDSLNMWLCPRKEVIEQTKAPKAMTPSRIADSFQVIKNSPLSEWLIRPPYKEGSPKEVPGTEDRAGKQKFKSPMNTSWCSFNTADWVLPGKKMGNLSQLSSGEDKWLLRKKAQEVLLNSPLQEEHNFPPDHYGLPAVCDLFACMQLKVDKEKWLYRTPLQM
Myc-tagged NCOA4-N-terminus (NCOA4 1-245): residues 1-245 of Q13772
Myc-tagged NCOA4-C-terminus (NCOA4 235-614): residues 235-614 of Q13772
NCOA4 383-522-GST: residues 383-522 of Q13772
NCOA4 485-509-GST: residues 485-509 of Q13772
NCOA4 383-522 I489A/W497A-GST (Q13772, form named): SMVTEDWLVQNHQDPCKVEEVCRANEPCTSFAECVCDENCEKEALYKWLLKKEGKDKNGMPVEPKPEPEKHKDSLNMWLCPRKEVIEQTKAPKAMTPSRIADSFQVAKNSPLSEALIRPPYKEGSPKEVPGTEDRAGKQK
NCOA4 383-522-GST with deletion of amino acids 490-499 (Q13772, form named): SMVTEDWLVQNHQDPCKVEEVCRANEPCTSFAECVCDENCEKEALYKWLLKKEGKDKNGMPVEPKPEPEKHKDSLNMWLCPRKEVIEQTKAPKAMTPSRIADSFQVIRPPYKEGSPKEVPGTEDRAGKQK
Myc-tagged NCOA4β (Q13772, form named): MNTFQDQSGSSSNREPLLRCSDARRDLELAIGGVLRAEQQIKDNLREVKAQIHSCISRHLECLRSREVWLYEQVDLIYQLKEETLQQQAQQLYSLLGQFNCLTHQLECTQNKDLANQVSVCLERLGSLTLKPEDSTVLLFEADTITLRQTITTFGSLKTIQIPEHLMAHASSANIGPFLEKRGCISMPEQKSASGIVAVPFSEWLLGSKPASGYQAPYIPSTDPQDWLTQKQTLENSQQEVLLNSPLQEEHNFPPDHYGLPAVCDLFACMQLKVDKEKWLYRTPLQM
UniProt O95714: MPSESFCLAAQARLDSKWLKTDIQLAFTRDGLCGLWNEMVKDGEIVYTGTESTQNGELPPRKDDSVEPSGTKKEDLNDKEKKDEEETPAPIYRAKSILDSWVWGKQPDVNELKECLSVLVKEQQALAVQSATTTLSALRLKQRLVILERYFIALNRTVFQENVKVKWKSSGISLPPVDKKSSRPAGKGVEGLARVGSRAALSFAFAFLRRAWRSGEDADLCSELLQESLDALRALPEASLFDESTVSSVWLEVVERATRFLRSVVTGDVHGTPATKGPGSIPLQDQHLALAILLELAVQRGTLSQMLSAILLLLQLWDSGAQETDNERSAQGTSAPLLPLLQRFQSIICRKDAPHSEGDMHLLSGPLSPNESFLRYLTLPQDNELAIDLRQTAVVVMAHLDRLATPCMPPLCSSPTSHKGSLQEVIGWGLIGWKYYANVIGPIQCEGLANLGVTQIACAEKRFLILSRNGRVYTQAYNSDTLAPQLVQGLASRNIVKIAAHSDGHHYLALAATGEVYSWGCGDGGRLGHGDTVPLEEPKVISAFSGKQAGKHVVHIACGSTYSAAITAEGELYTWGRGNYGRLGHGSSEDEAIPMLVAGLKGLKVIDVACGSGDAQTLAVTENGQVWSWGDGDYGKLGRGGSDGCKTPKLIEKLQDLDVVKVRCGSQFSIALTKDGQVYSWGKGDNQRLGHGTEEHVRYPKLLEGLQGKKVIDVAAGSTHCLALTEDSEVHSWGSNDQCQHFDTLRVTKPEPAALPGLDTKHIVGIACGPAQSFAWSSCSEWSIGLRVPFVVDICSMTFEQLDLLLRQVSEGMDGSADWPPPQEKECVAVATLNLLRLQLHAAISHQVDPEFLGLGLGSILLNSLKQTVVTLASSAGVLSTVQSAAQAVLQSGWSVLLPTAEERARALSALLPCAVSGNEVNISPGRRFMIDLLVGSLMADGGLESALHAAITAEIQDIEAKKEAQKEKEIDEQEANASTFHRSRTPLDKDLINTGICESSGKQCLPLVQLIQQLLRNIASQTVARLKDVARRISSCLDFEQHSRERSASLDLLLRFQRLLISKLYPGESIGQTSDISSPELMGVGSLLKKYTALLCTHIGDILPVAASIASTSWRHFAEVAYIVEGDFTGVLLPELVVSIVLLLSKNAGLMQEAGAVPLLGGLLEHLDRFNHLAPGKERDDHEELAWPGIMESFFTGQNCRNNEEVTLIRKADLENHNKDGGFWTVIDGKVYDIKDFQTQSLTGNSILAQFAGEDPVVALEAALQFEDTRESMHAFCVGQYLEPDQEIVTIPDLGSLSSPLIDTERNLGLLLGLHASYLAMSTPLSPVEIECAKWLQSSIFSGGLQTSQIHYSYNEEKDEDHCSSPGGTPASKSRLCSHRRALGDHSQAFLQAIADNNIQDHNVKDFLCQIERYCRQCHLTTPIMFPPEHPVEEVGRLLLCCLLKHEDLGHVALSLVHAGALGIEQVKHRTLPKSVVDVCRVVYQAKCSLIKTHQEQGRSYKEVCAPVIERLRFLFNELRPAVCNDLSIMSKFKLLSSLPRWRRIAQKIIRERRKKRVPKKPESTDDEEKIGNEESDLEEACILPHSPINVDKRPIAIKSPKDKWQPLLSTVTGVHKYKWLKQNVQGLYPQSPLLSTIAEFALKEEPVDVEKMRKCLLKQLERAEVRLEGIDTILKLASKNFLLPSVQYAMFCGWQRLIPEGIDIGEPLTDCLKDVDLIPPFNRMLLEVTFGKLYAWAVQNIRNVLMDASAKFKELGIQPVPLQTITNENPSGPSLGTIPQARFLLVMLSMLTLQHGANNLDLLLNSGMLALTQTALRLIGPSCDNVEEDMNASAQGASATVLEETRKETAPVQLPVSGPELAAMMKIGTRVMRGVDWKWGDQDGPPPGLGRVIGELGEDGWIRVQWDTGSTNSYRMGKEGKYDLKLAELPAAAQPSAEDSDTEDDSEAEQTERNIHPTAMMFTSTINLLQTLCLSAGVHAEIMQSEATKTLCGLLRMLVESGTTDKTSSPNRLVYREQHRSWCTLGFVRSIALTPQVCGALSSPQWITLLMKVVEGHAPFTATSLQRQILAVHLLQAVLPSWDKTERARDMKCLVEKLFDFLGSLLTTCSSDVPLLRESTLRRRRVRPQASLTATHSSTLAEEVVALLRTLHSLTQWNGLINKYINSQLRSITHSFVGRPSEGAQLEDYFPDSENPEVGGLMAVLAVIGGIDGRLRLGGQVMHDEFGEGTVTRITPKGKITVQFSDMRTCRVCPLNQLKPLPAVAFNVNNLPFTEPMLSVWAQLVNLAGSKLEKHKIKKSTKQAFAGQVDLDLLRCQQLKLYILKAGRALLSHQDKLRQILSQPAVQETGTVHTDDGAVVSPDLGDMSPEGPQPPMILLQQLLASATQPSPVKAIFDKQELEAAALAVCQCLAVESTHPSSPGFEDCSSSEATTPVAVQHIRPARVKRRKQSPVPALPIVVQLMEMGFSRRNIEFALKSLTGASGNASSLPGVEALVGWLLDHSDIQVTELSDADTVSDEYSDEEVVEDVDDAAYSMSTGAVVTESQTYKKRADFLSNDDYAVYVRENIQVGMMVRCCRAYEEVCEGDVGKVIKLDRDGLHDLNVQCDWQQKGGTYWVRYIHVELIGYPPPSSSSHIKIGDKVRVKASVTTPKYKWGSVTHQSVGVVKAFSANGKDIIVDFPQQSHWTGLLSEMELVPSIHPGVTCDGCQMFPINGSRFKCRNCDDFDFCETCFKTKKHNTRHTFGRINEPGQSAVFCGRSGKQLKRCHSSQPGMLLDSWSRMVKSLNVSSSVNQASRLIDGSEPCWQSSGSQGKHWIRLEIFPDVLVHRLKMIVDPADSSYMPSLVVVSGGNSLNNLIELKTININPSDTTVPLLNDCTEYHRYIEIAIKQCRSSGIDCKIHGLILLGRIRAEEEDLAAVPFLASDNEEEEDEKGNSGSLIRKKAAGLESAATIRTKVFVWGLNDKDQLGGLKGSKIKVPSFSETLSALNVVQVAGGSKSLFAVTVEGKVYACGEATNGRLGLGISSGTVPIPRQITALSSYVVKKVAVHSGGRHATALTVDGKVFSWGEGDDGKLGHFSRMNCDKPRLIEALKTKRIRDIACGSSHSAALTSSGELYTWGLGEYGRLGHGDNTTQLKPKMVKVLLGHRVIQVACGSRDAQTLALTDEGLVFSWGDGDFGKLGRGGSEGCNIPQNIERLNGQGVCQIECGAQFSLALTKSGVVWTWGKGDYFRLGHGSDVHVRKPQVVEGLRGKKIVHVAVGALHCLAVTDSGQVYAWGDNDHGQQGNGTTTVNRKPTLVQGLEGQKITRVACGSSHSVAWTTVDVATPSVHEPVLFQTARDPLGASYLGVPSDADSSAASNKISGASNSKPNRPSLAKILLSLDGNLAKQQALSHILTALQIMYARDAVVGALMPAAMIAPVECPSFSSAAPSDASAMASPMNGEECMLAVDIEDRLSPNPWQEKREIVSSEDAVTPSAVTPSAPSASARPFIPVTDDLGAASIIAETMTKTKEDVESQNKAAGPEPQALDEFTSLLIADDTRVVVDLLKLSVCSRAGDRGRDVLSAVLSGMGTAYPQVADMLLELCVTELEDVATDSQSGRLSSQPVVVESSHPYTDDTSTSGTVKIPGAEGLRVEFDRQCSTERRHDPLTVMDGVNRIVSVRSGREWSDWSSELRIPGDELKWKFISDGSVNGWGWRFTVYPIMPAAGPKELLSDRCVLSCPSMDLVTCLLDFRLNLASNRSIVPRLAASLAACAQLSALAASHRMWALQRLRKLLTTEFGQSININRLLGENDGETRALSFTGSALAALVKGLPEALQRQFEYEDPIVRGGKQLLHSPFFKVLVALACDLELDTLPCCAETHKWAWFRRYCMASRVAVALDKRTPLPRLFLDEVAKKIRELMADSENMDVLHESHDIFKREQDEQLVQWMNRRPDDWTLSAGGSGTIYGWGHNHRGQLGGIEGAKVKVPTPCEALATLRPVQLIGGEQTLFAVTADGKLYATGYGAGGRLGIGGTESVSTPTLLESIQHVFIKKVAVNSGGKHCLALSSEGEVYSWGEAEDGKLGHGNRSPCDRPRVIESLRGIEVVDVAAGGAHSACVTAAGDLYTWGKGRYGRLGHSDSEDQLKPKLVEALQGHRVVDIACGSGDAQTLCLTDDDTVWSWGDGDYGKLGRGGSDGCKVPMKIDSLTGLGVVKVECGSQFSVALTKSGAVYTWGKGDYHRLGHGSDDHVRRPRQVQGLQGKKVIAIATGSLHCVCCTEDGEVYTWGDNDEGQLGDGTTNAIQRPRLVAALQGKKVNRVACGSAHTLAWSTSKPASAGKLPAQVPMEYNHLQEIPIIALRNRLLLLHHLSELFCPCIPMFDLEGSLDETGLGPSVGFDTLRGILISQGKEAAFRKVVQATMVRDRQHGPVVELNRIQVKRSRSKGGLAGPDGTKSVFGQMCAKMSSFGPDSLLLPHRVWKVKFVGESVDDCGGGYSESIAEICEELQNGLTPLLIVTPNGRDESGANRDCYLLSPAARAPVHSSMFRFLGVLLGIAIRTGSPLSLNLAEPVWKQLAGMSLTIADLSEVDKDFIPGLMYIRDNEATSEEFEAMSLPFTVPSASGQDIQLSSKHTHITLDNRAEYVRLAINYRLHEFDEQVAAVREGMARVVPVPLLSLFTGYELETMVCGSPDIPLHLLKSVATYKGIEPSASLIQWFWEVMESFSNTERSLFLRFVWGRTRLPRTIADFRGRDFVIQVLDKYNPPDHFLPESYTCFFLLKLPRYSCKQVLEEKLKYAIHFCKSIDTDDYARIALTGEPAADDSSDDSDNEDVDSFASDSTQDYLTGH
FLAG-HA-HERC2 Fragment 3 (amino acids 1700-2800): residues 1700-2800 of O95714
FLAG-HA-HERC2 fragment 3-6 (residues 2540-2700): residues 2540-2700 of O95714
UniProt Q8MIP0: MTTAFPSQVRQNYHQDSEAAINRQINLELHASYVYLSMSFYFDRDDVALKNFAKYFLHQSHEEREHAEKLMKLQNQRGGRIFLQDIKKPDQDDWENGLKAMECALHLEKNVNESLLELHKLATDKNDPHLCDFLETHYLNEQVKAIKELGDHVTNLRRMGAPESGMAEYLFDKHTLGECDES
UniProt P02792: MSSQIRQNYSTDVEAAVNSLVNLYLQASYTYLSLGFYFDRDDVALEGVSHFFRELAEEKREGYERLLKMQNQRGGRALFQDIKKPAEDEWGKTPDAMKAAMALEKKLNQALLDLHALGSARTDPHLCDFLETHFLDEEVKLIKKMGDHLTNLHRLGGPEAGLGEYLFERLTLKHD

What was measured:
[1] = target: NCOA4 485-509-GST (human) (UniProt Q13772); test: pull-down; NCOA4-GST fragments on glutathione Sepharose 4B, mixed with 50 μg apoferritin from equine spleen; 30 min at 4°C; 150 mM NaCl, 20 mM Tris pH 7.4, 2 mM DTT, 0.5% Nonidet P-40; SDS-PAGE and Coomassie stain; both purified
[2] = target: NCOA4 383-522 I489A/W497A-GST (human) (UniProt Q13772); test: as above
[3] = target: NCOA4 383-522-GST with deletion of amino acids 490-499 (human) (UniProt Q13772); test: as above
[4] = target: NCOA4 485-509-GST (human) (UniProt Q13772); test: pull-down; NCOA4-GST fragments on glutathione Sepharose 4B, mixed with 2 μg apoferritin from equine spleen; 30 min at 4°C; bound ferritin by immunoblot with FTH1 antibody; both purified
[5] = target: Myc-tagged NCOA4-C-terminus (NCOA4 235-614) (human) (UniProt Q13772); test: pull-down; in vitro translated Myc-NCOA4 proteins held on anti-c-Myc agarose, mixed with horse spleen apoferritin (MYC-IP); 30 min at 4°C; wash 150 mM NaCl, 20 mM Tris pH 7.4, 2 mM DTT, 0.5% Nonidet P-40; immunoblot; only the binder purified
[6] = target: Myc-tagged NCOA4α (full length) (human) (UniProt Q13772); test: as above
[7] = target: Myc-tagged NCOA4-N-terminus (NCOA4 1-245) (human) (UniProt Q13772); test: condition: 2 μg apoferritin per pulldown (immunoblot-based); pull-down; in vitro translated Myc-NCOA4 proteins held on anti-c-Myc agarose, mixed with horse spleen apoferritin (MYC-IP); 30 min at 4°C; wash 150 mM NaCl, 20 mM Tris pH 7.4, 2 mM DTT, 0.5% Nonidet P-40; immunoblot; only the binder purified
[8] = target: Myc-tagged NCOA4β (human) (UniProt Q13772); test: as above
[9] = target: NCOA4-FLAG-HA (CTAP), wild type NCOA4α (human) (UniProt Q13772); test: co-IP; FLAG affinity purification of stably expressed NCOA4-FLAG-HA from 293T cells treated for 9 hr as indicated (100 μM DFO, 30 μM DFX, 0.05 mg/ml FAC); immunoblot for endogenous HERC2
[10] = target: NCOA4-FLAG-HA (CTAP), wild type NCOA4α (human) (UniProt Q13772); test: co-IP; FLAG affinity purification (anti-FLAG M2 magnetic beads) of NCOA4-FLAG-HA wild type or mutant from HCT116 control or NCOA4-knockout cells; 50 mM Tris-HCl pH 7.5, 150 mM NaCl, 0.5% Nonidet P40, 1 mM DTT; immunoblot
[11] = target: NCOA4 I489A/W497A-FLAG-HA (CTAP) (human) (UniProt Q13772); test: as above
[12] = target: endogenous NCOA4 (human (endogenous in HCT116 and 293T)) (UniProt Q13772); test: co-IP; endogenous HERC2 or NCOA4 IP (Protein G agarose with specific antibodies) from 293T cells, untreated or loaded with FAC for 6 hr; immunoblot
[13] = target: FLAG-HA-HERC2 Fragment 3 (amino acids 1700-2800) (human) (UniProt O95714); test: co-IP; anti-FLAG IP of FLAG-HA-HERC2 fragments from 293T extracts, elution with 3× FLAG peptide; immunoblot for endogenous NCOA4
[14] = target: FLAG-HA-HERC2 fragment 3-6 (residues 2540-2700) (human) (UniProt O95714); test: as above
[15] = target: FLAG-HA-HERC2 Fragment 3 (amino acids 1700-2800) (human) (UniProt O95714); test: condition: only cells treated with DFO (iron chelation) for 9 hr; co-IP; anti-FLAG IP of FLAG-tagged HERC2 F3 from 293T cells treated with DFO for 9 hr; immunoblot for endogenous NCOA4
[16] = target: NCOA4 383-522-GST (human) (UniProt Q13772); test: pull-down; NCOA4 383-522-GST on glutathione Sepharose 4B, mixed with 50 μg recombinant FTH1-only or FTL-only complexes; 30 min at 4°C; 150 mM NaCl, 20 mM Tris pH 7.4, 2 mM DTT, 0.5% Nonidet P-40; Coomassie stain; both purified

apoferritin purified from horse spleen (containing both FTH1 and FTL) (from UniProt Q8MIP0 1-182; P02791 1-175) (complex)
binding [1]: binds weakly | binding [2]: no binding (tested: 50 μg apoferritin per pulldown) | binding [3]: no binding (tested: 50 μg apoferritin per pulldown) | binding [4]: binds weakly | binding [5]: binds | binding [6]: binds | binding [7]: no binding | binding [8]: no binding

endogenous HERC2 (from UniProt O95714 1-4834)
binding [9]: binds | binding [10]: binds | binding [11]: binds | binding [12]: binds

endogenous NCOA4 (from UniProt Q13772 1-614)
binding [13]: binds | binding [14]: binds | binding [15]: no binding | binding [11]: binds

recombinant FTL-only ferritin complex (from UniProt P02792 1-175)
binding [16]: no binding (tested: 50 μg of purified protein per pulldown)
